# The list shows a part of the results.
# B1: CpGal16 (Clavelina picta) (protein)
# chain: MAKMITNYVGKRIECIMVATDMMSTVFSLASATGDLPFYINFRQRENSIVMNTRVHGKWQYEKSQSSGGMNFYEPFRLVVEVRPSVFKVTVSTMGEEDGITFNLQYSQITIKPDEIVAMHLGYCNLRSELLVTDL
# Key:
# Assay in all cases: glycan array binding signal (z-score within array); higher = stronger binding
# Conditions in all cases: glycan notation: IUPAC condensed, linker removed
# [1] = biological target: Neu5Ac(a2-3)Gal(b1-4)Glc
# How it was run: (§1)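 Glycan array data were curated from 3228 arrays in the Consortium for Functional Glycomics database and kept only where the protein sequence was available. Glycan names were converted to IUPAC-condensed notation, and columns mapping to the same glycan were averaged. The binding signal is a within-array Z-score, averaged across arrays of the same protein sequence at different concentrations or buffers and across linkers. Negative Z-scores can be read as non-binding.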
# [2] = biological target: Neu5Ac(a2-3)Gal(b1-4)GlcNAc
# How it was run: as §1
# [3] = biological target: Neu5Ac(a2-3)Gal(b1-4)GlcNAc(b1-2)Man
# How it was run: as §1
# [4] = biological target: Neu5Ac(a2-3)Gal(b1-4)GlcNAc(b1-2)Man(a1-3)[GlcNAc(b1-4)][Neu5Ac(a2-3)Gal(b1-4)GlcNAc(b1-2)Man(a1-6)]Man(b1-4)GlcNAc(b1-4)GlcNAc
# How it was run: as §1
# [5] = biological target: Neu5Ac(a2-3)Gal(b1-4)GlcNAc(b1-2)Man(a1-3)[Neu5Ac(a2-3)Gal(b1-4)GlcNAc(b1-2)Man(a1-6)]Man(b1-4)GlcNAc(b1-4)GlcNAc
# How it was run: as §1
# [6] = biological target: Neu5Ac(a2-3)Gal(b1-4)GlcNAc(b1-2)Man(a1-3)[Neu5Ac(a2-3)Gal(b1-4)GlcNAc(b1-2)Man(a1-6)]Man(b1-4)GlcNAc(b1-4)[Fuc(a1-6)]GlcNAc
# How it was run: as §1
# [7] = biological target: Neu5Ac(a2-3)Gal(b1-4)GlcNAc(b1-2)Man(a1-3)[Neu5Ac(a2-6)Gal(b1-4)GlcNAc(b1-2)Man(a1-6)]Man(b1-4)GlcNAc(b1-4)GlcNAc
# How it was run: as §1
# [8] = biological target: Neu5Ac(a2-3)Gal(b1-4)GlcNAc(b1-2)[Neu5Ac(a2-3)Gal(b1-4)GlcNAc(b1-4)]Man(a1-3)[GlcNAc(b1-4)][Neu5Ac(a2-3)Gal(b1-4)GlcNAc(b1-2)[Neu5Ac(a2-3)Gal(b1-4)GlcNAc(b1-6)]Man(a1-6)]Man(b1-4)GlcNAc(b1-4)GlcNAc
# How it was run: as §1
# [9] = biological target: Neu5Ac(a2-3)Gal(b1-4)GlcNAc(b1-2)[Neu5Ac(a2-3)Gal(b1-4)GlcNAc(b1-4)]Man(a1-3)[GlcNAc(b1-4)][Neu5Ac(a2-3)Gal(b1-4)GlcNAc(b1-4)Man(a1-6)]Man(b1-4)GlcNAc(b1-4)GlcNAc
# How it was run: as §1
# [10] = biological target: Neu5Ac(a2-3)Gal(b1-4)GlcNAc(b1-2)[Neu5Ac(a2-3)Gal(b1-4)GlcNAc(b1-6)]Man(a1-6)[Neu5Ac(a2-3)Gal(b1-4)GlcNAc(b1-2)Man(a1-3)]Man(b1-4)GlcNAc(b1-4)GlcNAc
# How it was run: as §1
# [11] = biological target: Neu5Ac(a2-3)Gal(b1-4)GlcNAc(b1-2)[Neu5Ac(a2-3)Gal(b1-4)GlcNAc(b1-6)]Man(a1-6)[Neu5Ac(a2-3)Gal(b1-4)GlcNAc(b1-2)Man(a1-3)][GlcNAc(b1-4)]Man(b1-4)GlcNAc(b1-4)GlcNAc
# How it was run: as §1
# [12] = biological target: Neu5Ac(a2-3)Gal(b1-4)GlcNAc(b1-3)Gal
# How it was run: as §1
# [13] = biological target: Neu5Ac(a2-3)Gal(b1-4)GlcNAc(b1-3)Gal(b1-3)GlcNAc
# How it was run: as §1
# [14] = biological target: Neu5Ac(a2-3)Gal(b1-4)GlcNAc(b1-3)Gal(b1-4)GlcNAc
# How it was run: as §1
# [15] = biological target: Neu5Ac(a2-3)Gal(b1-4)GlcNAc(b1-3)Gal(b1-4)GlcNAc(b1-2)Man(a1-3)[Neu5Ac(a2-3)Gal(b1-4)GlcNAc(b1-3)Gal(b1-4)GlcNAc(b1-2)Man(a1-6)]Man(b1-4)GlcNAc(b1-4)GlcNAc
# How it was run: as §1
# [16] = biological target: Neu5Ac(a2-3)Gal(b1-4)GlcNAc(b1-3)Gal(b1-4)GlcNAc(b1-3)Gal(b1-4)GlcNAc
# How it was run: as §1
# [17] = biological target: Neu5Ac(a2-3)Gal(b1-4)GlcNAc(b1-3)Gal(b1-4)GlcNAc(b1-3)Gal(b1-4)GlcNAc(b1-2)Man(a1-3)[Neu5Ac(a2-3)Gal(b1-4)GlcNAc(b1-3)Gal(b1-4)GlcNAc(b1-3)Gal(b1-4)GlcNAc(b1-2)Man(a1-6)]GalNAc
# How it was run: as §1
# [18] = biological target: Neu5Ac(a2-3)Gal(b1-4)GlcNAc(b1-3)Gal(b1-4)GlcNAc(b1-3)GalNAc
# How it was run: as §1
# [19] = biological target: Neu5Ac(a2-3)Gal(b1-4)GlcNAc(b1-3)Gal(b1-4)GlcNAc(b1-3)[Neu5Ac(a2-3)Gal(b1-4)GlcNAc(b1-3)Gal(b1-4)GlcNAc(b1-6)]GalNAc
# How it was run: as §1
# [20] = biological target: Neu5Ac(a2-3)Gal(b1-4)GlcNAc(b1-3)Gal(b1-4)GlcNAc(b1-6)[Gal(b1-3)]GalNAc
# How it was run: as §1
# [21] = biological target: Neu5Ac(a2-3)Gal(b1-4)GlcNAc(b1-3)Gal(b1-4)[Fuc(a1-3)]GlcNAc
# How it was run: as §1
# [22] = biological target: Neu5Ac(a2-3)Gal(b1-4)GlcNAc(b1-3)GalNAc
# How it was run: as §1
# [23] = biological target: Neu5Ac(a2-3)Gal(b1-4)GlcNAc(b1-3)[Neu5Ac(a2-3)Gal(b1-4)GlcNAc(b1-6)]GalNAc
# How it was run: as §1
# [24] = biological target: Neu5Ac(a2-3)Gal(b1-4)GlcNAc(b1-6)GalNAc
# How it was run: as §1
# [25] = biological target: Neu5Ac(a2-3)Gal(b1-4)GlcNAc(b1-6)[Gal(b1-3)]GalNAc
# How it was run: as §1
# [26] = biological target: Neu5Ac(a2-3)Gal(b1-4)GlcNAc(b1-6)[Neu5Ac(a2-3)Gal(b1-3)]GalNAc
# How it was run: as §1
# [27] = biological target: Neu5Ac(a2-3)Gal(b1-4)GlcNAc6S
# How it was run: as §1
# [28] = biological target: Neu5Ac(a2-3)Gal(b1-4)[Fuc(a1-3)]GlcNAc
# How it was run: as §1
# [29] = biological target: Neu5Ac(a2-3)Gal(b1-4)[Fuc(a1-3)]GlcNAc(b1-2)Man
# How it was run: as §1
# [30] = biological target: Neu5Ac(a2-3)Gal(b1-4)[Fuc(a1-3)]GlcNAc(b1-3)Gal
# How it was run: as §1
# [31] = biological target: Neu5Ac(a2-3)Gal(b1-4)[Fuc(a1-3)]GlcNAc(b1-3)Gal(b1-4)GlcNAc
# How it was run: as §1
# [32] = biological target: Neu5Ac(a2-3)Gal(b1-4)[Fuc(a1-3)]GlcNAc(b1-3)Gal(b1-4)[Fuc(a1-3)]GlcNAc(b1-3)Gal(b1-4)[Fuc(a1-3)]GlcNAc
# How it was run: as §1
# [33] = biological target: Neu5Ac(a2-3)Gal(b1-4)[Fuc(a1-3)]GlcNAc(b1-3)GalNAc
# How it was run: as §1
# [34] = biological target: Neu5Ac(a2-3)Gal(b1-4)[Fuc(a1-3)]GlcNAc(b1-6)[Gal(b1-3)]GalNAc
# How it was run: as §1
# [35] = biological target: Neu5Ac(a2-3)Gal(b1-4)[Fuc(a1-3)]GlcNAc(b1-6)[Neu5Ac(a2-3)Gal(b1-3)]GalNAc
# How it was run: as §1
# [36] = biological target: Neu5Ac(a2-3)Gal(b1-4)[Fuc(a1-3)]GlcNAc6S
# How it was run: as §1
# [37] = biological target: Neu5Ac(a2-3)Gal6S(b1-4)GlcNAc
# How it was run: as §1
# [38] = biological target: Neu5Ac(a2-3)Gal6S(b1-4)[Fuc(a1-3)]GlcNAc
# How it was run: as §1
binder,measurement,setting,value
B1,glycan array binding signal (z-score),[1],-0.205
same,glycan array binding signal (z-score),[2],-0.378
same,glycan array binding signal (z-score),[3],0.081
same,glycan array binding signal (z-score),[4],-0.472
same,glycan array binding signal (z-score),[5],-0.342
same,glycan array binding signal (z-score),[6],-0.245
same,glycan array binding signal (z-score),[7],-0.368
same,glycan array binding signal (z-score),[8],-0.483
same,glycan array binding signal (z-score),[9],-0.448
same,glycan array binding signal (z-score),[10],-0.211
same,glycan array binding signal (z-score),[11],-0.443
same,glycan array binding signal (z-score),[12],-0.387
same,glycan array binding signal (z-score),[13],-0.491
same,glycan array binding signal (z-score),[14],-0.401
same,glycan array binding signal (z-score),[15],-0.159
same,glycan array binding signal (z-score),[16],-0.408
same,glycan array binding signal (z-score),[17],0.222
same,glycan array binding signal (z-score),[18],-0.446
same,glycan array binding signal (z-score),[19],-0.317
same,glycan array binding signal (z-score),[20],-0.28
same,glycan array binding signal (z-score),[21],-0.293
same,glycan array binding signal (z-score),[22],-0.476
same,glycan array binding signal (z-score),[23],-0.349
same,glycan array binding signal (z-score),[24],-0.325
same,glycan array binding signal (z-score),[25],-0.422
same,glycan array binding signal (z-score),[26],-0.324
same,glycan array binding signal (z-score),[27],-0.266
same,glycan array binding signal (z-score),[28],-0.429
same,glycan array binding signal (z-score),[29],-0.393
same,glycan array binding signal (z-score),[30],-0.51
same,glycan array binding signal (z-score),[31],-0.19
same,glycan array binding signal (z-score),[32],-0.483
same,glycan array binding signal (z-score),[33],0.159
same,glycan array binding signal (z-score),[34],0.134
same,glycan array binding signal (z-score),[35],-0.216
same,glycan array binding signal (z-score),[36],-0.373
same,glycan array binding signal (z-score),[37],-0.459
same,glycan array binding signal (z-score),[38],-0.325

# From the supplement of paper PMC8728848
